Experimental data as given in US8013006B2.

System: HCV IRES-driven translation
Method: Both HepGmono-4 and pLuc cells are treated with the compounds as described above, following treatment with the test compounds for 20 hours, cells are collected and lysed in Laminin buffer containing 0.5% SDS. Proteins are separated on a 10% SDS-PAGE, then transferred onto a nitrocellulose membrane, and blotted using antibodies against Fluc (RDI) and β-actin (Oncogene).

COc1ccc(C[C@H](N)C(=O)N[C@H]2[C@@H](O)[C@H](n3cnc4c(N(C)C)ncnc43)O[C@@H]2CO)cc1 [puromycin]
luciferase reporter protein level (HCV IRES-driven), Western blot: inhibited
